Measured values as given in PubChem BioAssay AID686970 (National Center for Advancing Translational Sciences (NCATS), 2013).
The campaign covered roughly 360,000 compounds. About 6,000 (1.7%) were called active. Inconclusive results, whose numbers are uncertain, are shown with a selection of clear calls. Calls come from the whole dose curve; as a rule, active = well fitted cell-killing curve with a large enough effect; inconclusive = small, poorly fitted or top-dose-only effect, or effect the other way; inactive = flat fitted curve, though single readings scatter. Potencies of inconclusive entries are left out as doubtful fits.

Assay: qHTS for induction of synthetic lethality in tumor cells producing 2HG: qHTS for the HT-1080-NT fibrosarcoma cell line;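 note: NT is the 2HG producing partner of a matched IDH1 knockdown line; nearly all actives have a fitted effect of over 55% in size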;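 for activity, negative = less viability: 0% = DMSO-treated cells and -100% = media-only wells without cells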
Conditions: HT-1080-NT fibrosarcoma viability, CellTiter-Glo ATP luminescence, 48 h; activity, negative = less viability: at 46.1 µM (top of the series) unless noted
In short: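 750 cells/well, RPMI + 5% FBS; 2 h settle, compound pin-transfer, 48 h at 37 degrees C. CellTiter-Glo 10 min RT, luminescence. Normalized to DMSO and media-only wells.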
Potency is the fitted concentration of half-maximal effect; tags give direction and shape of the fitted curve.

Row | Compound | Potency | activity, negative = less viability
1 | CCN(Cc1ccccc1)C(=O)c1ccc(C)c(S(=O)(=O)N2CCCCC2)c1 | inactive | 
2 | O=C(NCCNc1ccc([N+](=O)[O-])cc1C(F)(F)F)c1ccccc1F | inconclusive [cytotoxic, single point] | 
3 | CCCn1c(C(CO)Nc2nc(-c3cccc(Br)c3)cs2)nc2ccccc21 (stereo unspecified) | inconclusive [cytotoxic, single point] | 
4 | CC[C@@]12C(=O)N(c3ccccc3)C(=O)N1[C@H](c1ccc(OC)cc1)[C@@H]1C(=O)N(C(C)(C)C)C(=O)[C@@H]12 | inconclusive [rising, single point] | 
5 | Cc1c(N(C(=O)CNC(=O)c2ccccc2)C2(C(=O)NC3CCCC3)CCCCC2)c(=O)n(-c2ccccc2)n1C | inactive | 
6 | Cc1cc(NC(=O)CSc2nc3cc(Cl)ccc3c(=O)n2Cc2ccco2)no1 |  | inconclusive: -19% [cytotoxic]
7 | CCC(=O)Nc1nc2ccccc2n1Cc1ccccc1 | inconclusive [cytotoxic, single point] | 
8 | Cn1c(/C(C#N)=C/C2CC=CCC2)nc2ccccc21 (stereo unspecified) | inconclusive [cytotoxic, single point] | 
9 | CCN(CC)c1ccc(/C=N/NC(=O)c2cnccn2)cc1 | active: 5.17 µM | 
10 | CC(C)(C)c1ccc(-c2nc3n(c(=O)c2C#N)CCS3)cc1 | inactive | 
11 | COc1ccc(/C=N/Nc2ccc([N+](=O)[O-])cc2S(=O)(=O)N2CCN(C)CC2)cc1 | inactive | 
12 | COC(=O)C(Cc1ccc(O)cc1)NC(=O)NC12CC3CC(CC(C3)C1)C2 (stereo unspecified) | inconclusive [cytotoxic, partial curve] | 
13 | CS(=O)(=O)N1CCCCC1c1cc(C(=O)NCc2ccc(Cl)c(Cl)c2)no1 (stereo unspecified) | inactive | 
14 | COc1ccc(C2CC(c3cccc(OC)c3)=NN2c2ccc(S(N)(=O)=O)cc2)cc1 (stereo unspecified) | active: 18.4 µM | 
15 | COc1ccc(CCN2CCCn3c2nc2c3c(=O)[nH]c(=O)n2C)cc1OC | inconclusive [cytotoxic, single point] | 
16 | Cc1ccc(CNc2ccc(O)cc2)cc1 | inconclusive [cytotoxic, single point] | 
17 | C[C@@H]1CN([C@H](C)CO)C(=O)c2cc(NC(=O)NC3CCCCC3)ccc2O[C@H]1CN(C)S(C)(=O)=O | inconclusive [rising, partial curve, poor fit] | 
18 | COc1ccccc1OCC(=O)NNC(=O)Nc1ccc(Cl)cc1 | active: 18.4 µM | 
19 | COc1ccc([C@H]2CC(=O)C=C(c3ccnc4ccc(Cl)cc34)C2)cc1 | active: 18.4 µM | 
20 | COc1ccc(OC)c(NC(=O)C2(C)CCN2C(=O)CC2CC2)c1 (stereo unspecified) | inactive | 
21 | N#Cc1c(N)[nH]c(C(=O)c2ccccc2)c1-c1ccc(Cl)cc1 | inactive | 
22 | CN(C)c1ccc(C(=O)N/N=C/c2ccccn2)cc1 |  | inconclusive: -34.3% [cytotoxic]
23 | CCOC(=O)N1CCN(C(=O)c2ccccc2-c2ccccc2)CC1 | active: 10.3 µM | 
24 | COC(=O)c1ccc(Cn2cnc3c(Cl)ncnc32)cc1 | inconclusive [cytotoxic, single point] | 

Row | Compound | Potency | activity, negative = less viability
25 | CC(=O)Oc1cc2c(C(=O)NCCCN3CCOCC3)c(C)oc2c2ccccc12 | inconclusive [cytotoxic, single point] | 
26 | COc1cc(S(=O)(=O)N2CCOCC2)cc(C(=O)OCC(=O)NCc2ccco2)c1OC | inactive | 
27 | O=C(Nc1nc2c(s1)CCCC2)c1cccs1 | inconclusive [cytotoxic, partial curve] | 
28 | C#CCOCCOCCOCCNc1nc(N2CCN(C(=O)CCCCCCCCCCNC(=O)Cn3cc(CCCCCN)nn3)CC2)nc(N2CCN(C(=O)CCCCCCCCCCNC(=O)[C@H](CO)n3cc(CCCCCN)nn3)CC2)n1 | inactive | 
29 | COC(=O)c1ccccc1NC(=O)Nc1cccs1 | inactive | 
30 | CC(C)OC(=O)CSc1nc(N)c(C#N)c(-c2ccco2)c1C#N |  | inconclusive: -35.2% [cytotoxic]
31 | COc1ccc(OCc2cc(C(=O)NCCN3CCCC(O)C3)no2)c(Cl)c1 (stereo unspecified) | inactive | 
32 | CCOc1cccc(/C=N/NC(=O)c2cc(C3CC3)[nH]n2)c1O | inconclusive [cytotoxic, partial curve] | 
33 | C=CCn1c(COc2ccc3c(c2)CCCC3)nnc1SCC(=O)Nc1cccc(SC)c1 | inconclusive [cytotoxic, single point] | 
34 | Oc1ccccc1C1CC(c2cccs2)=NC(c2ccc(Cl)cc2)N1 (stereo unspecified) | inconclusive [cytotoxic, single point] | 
35 | Cc1cc(SCC(=O)N/N=C/c2ccc(O)cc2O)nc2ccccc12 | inconclusive [cytotoxic, partial curve, poor fit] | 
36 | Clc1ccc(-c2noc(COc3ccccc3)n2)cc1 | inconclusive [cytotoxic, partial curve] | 
37 | CC(C)CCNC(=O)c1csc2c1CCCCC2 | inactive | 
38 | O=C(Nc1ccccc1C(=O)Nc1nnc(C(F)(F)F)s1)c1ccccc1Cl | active: 10.3 µM | 
39 | Cc1cccc(NC(=S)NNC(=O)c2csc3c2CCCC3)c1 | inconclusive [cytotoxic, single point] | 
40 | CCOc1ccccc1NC(=O)C(=O)CC(=O)c1cccc(OC)c1 | inconclusive [cytotoxic, single point] | 
41 | Cc1cc2nccc(-c3ccccn3)n2n1 | inconclusive [rising, partial curve, poor fit] | 
42 | O=C1CC2(CCN(C(=O)c3ccc(F)c(F)c3)CC2)Oc2ccccc21 | inactive | 
43 | Cc1cc2c(cc(C(=O)OCC(=O)NCc3cccs3)n2C(C)C)o1 | active: 1 µM | 
44 | Cc1ccc(-n2c(-c3cccc(C)c3)n[nH]c2=S)cc1 | inconclusive [cytotoxic, single point] | 
45 | CCn1c(=N)n(CC(=O)C(C)(C)C)c2ccccc21 | active: 7.08 µM | 
46 | CCO[C@H]1OC(C(=O)NCc2nc3ccccc3[nH]2)=C[C@@H](C2CCCCC2)[C@@H]1CCCO | inactive | 
47 | Cc1c(N2C(=O)/C(=C/c3ccccc3)SC2=S)c(=O)n(-c2ccccc2)n1C | inconclusive [cytotoxic, single point] | 
48 | CN(C)CCCN(C(=O)c1ccco1)c1nc2ccc(Cl)cc2s1 | inconclusive [cytotoxic, single point] | 

Row | Compound | Potency | activity, negative = less viability
49 | CC(=O)Nc1ccc(Nc2nc(C)nc3c2nnn3Cc2ccccc2Cl)cc1 | inconclusive [cytotoxic, partial curve] | 
50 | CC1CCC(C(C)C)C(OC(=O)Cn2c(-c3ccc(Cl)cc3)[n+](C)c3ccccc32)C1 (stereo unspecified) | active: 5.8 µM | 
51 | Clc1ccc(-c2nc(/C=N/N3CCOCC3)c3ccccn23)cc1 | inactive | 
52 | C[C@@H]1CN([C@H](C)CO)C(=O)c2cc(Br)cnc2O[C@@H]1CN(C)Cc1ccc(-c2ccccc2)cc1 | inconclusive [cytotoxic, single point] | 
53 | Cc1c(Cl)c([N+](=O)[O-])nn1CCCC(=O)Nc1cccnc1 | inactive | 
54 | Cc1ccccc1-c1ccc(CN2C(C)C(=O)N(Cc3cn(Cc4ccco4)nn3)CCS2(=O)=O)cc1 (stereo unspecified) | inconclusive [cytotoxic, single point] | 
55 | CCc1nc2c(OCCc3cccc(OC)c3)cccn2c1N(C)C(=O)c1ccc(OC)cc1 | inactive | 
56 | O=Nc1c(O)n(Cc2cccc(Cl)c2)c2ccccc12 | active: 14.6 µM | 
57 | Cc1ccc(S(=O)(=O)N2C(c3ccc(Cl)c(Cl)c3)CC=C(C(=O)O)C2c2cccc(Cl)c2)cc1 (stereo unspecified) | inconclusive [cytotoxic, single point] | 
58 | O=C(c1ccc2c(c1)OCO2)N(Cc1cccs1)C1(C(=O)NC2CCCCC2)CCCCC1 | inconclusive [cytotoxic, single point] | 
59 | COc1ccccc1N(CC(=O)N/N=C/c1ccc(C(=O)O)cc1)S(=O)(=O)c1ccc(C)cc1 | inactive | 
60 | CCOC(=O)Cc1c(C)nc2c(-c3cccc(Br)c3)c[nH]n2c1=O | inconclusive [cytotoxic, partial curve] | 
61 | Cc1[nH]n(-c2ccccc2)c(=O)c1/C=N/Nc1nncc(-c2ccccc2)n1 | active: 1.26 µM | 
62 | CC(C)[C@H](CO)Nc1nc(NCc2ccc(S(N)(=O)=O)cc2)c2ncn(C(C)C)c2n1 | inconclusive [cytotoxic, partial curve] | 
63 | O=C(CSc1nnc(Cn2cnc3ccccc32)o1)Nc1cccc2ccccc12 | inactive | 
64 | CCNc1nc(NC(C)(C)C)nc(SC(C(C)=O)C(C)=O)n1 | inconclusive [cytotoxic, full curve] | 
65 | CN1CCN(C2=C(Cl)C(=O)N(c3ccc(Cl)c(Cl)c3)C2=O)CC1 | inconclusive [cytotoxic, single point] | 
66 | CCOC(=O)[C@@H]1[C@H]2COc3ccccc3[C@@H]2N2C(=O)N(c3cccc(F)c3)C(=O)[C@]12C | inactive | 
67 | CCN(CC)CCNC(=O)c1ccc(NC(=O)c2ccccc2-c2ccc(C(F)(F)F)cc2)cc1 | active: 23.1 µM | 
68 | COc1ccc(/C=C2/CSC/C(=C/c3ccc(OC)c(OC)c3)C2=O)cc1OC | active: 5.8 µM | 
69 | CCOC(=O)c1c(C)[nH]c(C)c1S(=O)(=O)NC(CC)CN1CCOCC1 (stereo unspecified) | inactive | 
70 | COc1ccccc1-c1cc(NC=O)c2ncc(-c3cccc(C(C)=O)c3)n2c1 | inconclusive [cytotoxic, full curve] | 
71 | Cc1nn(-c2ccc(F)cc2)c(C)c1NS(=O)(=O)c1ccc2ccccc2c1 | inconclusive [cytotoxic, single point] | 
